The RNAGym collection of RNA variant scans (doi:10.1093/nar/gkz1192)
Read counts are not given, so values of variants with three or more changes are uncertain.

B1: CPEB3 Ribozyme (parent)
chain: UAACAGGGGGCCACAGCAGAAGCGUUCACGUCGCAGCCCCUGUCAGAUUCUGGUGAAUCUGCGAAUUCUGCUGUAUAUCUC

Variants of: B1
Test: self-cleavage, relative activity (ratio to wild type); higher = more cleavage; in vitro, sequencing
Procedure, shortened: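 After error-prone PCR and barcoding, CPEB3 ribozyme mutant libraries were transcribed with T7 RNA polymerase at 37°C for 5 hours, then given 15 min with DNase I before an EDTA stop, and they cleaved during both steps. Reverse transcription with template switching preceded Illumina sequencing. Relative activity divides a variant's cleaved/total read fraction by the unmutated ribozyme's. At least 5 reads were required per variant, and three batches were averaged.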

Variant | self-cleavage
U26A U49A U66C | 0.16
U26G C38U U54A A56G U72C | 0.02
U26C U43C A57G U78C | 0.28
U26C C32U A47U A75G | 0.12
U26C A28G U60G | 0.15
U26C U48C U67C A77G | 0.05
U26A U49C U54A U74C | 0.6
C27A A45G U49A U67A | 0.13
U26C A47G U69G U80C | 0.14
A28G C29A C37U A64G | 0.15
U26C U51C U60G A64U A65C U76C | 0.1
U26C A35U G42C U51C G53U U58G | 0.07
U26C A45U U66A U78C | 0.1
U26C A28G A35G U72C | 0.81
U26C U41C A45C | 0.4
U26C A47U A57G U60C U69C U80C | 0.07
A28G A35U U80C | 0.29
A28C C62A U67A | 0.17
U26A U58C A65G U67A | 0.15
U26C U43A U49C U54G | 0.16
U26C U43A U67C | 0.55

Variant | self-cleavage
U26C A28G U58C C71A U80C | 0.12
U26C A28G C32U U58A U76C U80C | 0.09
U26A U43C U51C A75U | 0.15
A28G A65G C81A | 0.35
C27U U31A U54C A64C U72C | 0.09
U26C G55A G63A | 0.2
A28G A56G A77U | 0.46
C27G U41A A45G U51A A64U | 0.12
A28G A35U U54C U58C U72C | 0.14
U26A U31C U67C | 0.14
U26C U58C G61U A75G | 0.14
U26C U49C U54C A56U U78C | 0.09
C27U U72C A77G | 0.27
U26C U31G U41A U76C | 0.09
U26C G46A A47G U60C A64U | 0.07
A28G A47G U72A U78C | 0.17
U26C C27U U72G | 0.16
U26C A28G U60A G73C | 0.17
U26A U67C A75G A77G | 0.16
A28G A35U A45U | 0.16
A28G A57G U72A | 0.16

Variant | self-cleavage
U26C C32U C38A U67A | 0.13
U26C U31C U48C U69G | 0.09
U26C U31C U49C U51A U67C | 0.06
A28G A45U U54C U78C | 0.5
U26C A45U G46U A64G U78A | 0.1
A28C C39U U51C | 0.41
A28G C29U U49C | 0.45
U26C U48C C59A C68U | 0.21
C27U U48C U72C U78A | 0.09
U26C U54A U69A | 0.16
A28C U41C A57G U80C | 0.35
U26C A35G U43C A56G | 0.91
U26C C62A U72C | 0.13
C27G A47G U80C | 0.36
U26C A57G U74C | 0.69
U26C G33A C40U U41A A45G | 0.19
U26C A35U U51C | 0.17
A28G C29U U67C | 0.05
A28C U41C U72C | 0.35
A28C A47G U67G | 0.17
U26A U48C U51C A64G C71U C81U | 0.13

Variant | self-cleavage
A28C G33C A75U | 0.43
A28G C32A A47G G63A U69C | 0.09
U26C C37U U60G | 0.11
U26C A45G A57G A65U | 0.07
U26C G33A U49C | 0.19
A28C U58C U69A A75G | 0.25
C27A A28G U41C U78C | 0.17
U26C U54C A56U | 0.36
U26C U43C A47G A56G | 0.31
U26C A28G U72C A77C | 0.21
U26G U31C U43C U72C | 0.45
U26A U48C U74C | 1.12
A28C U31A U43A U60C G61A U67C | 0.06
A28G A35G U54C U67C | 0.1
C27U A28C A35C U51A U66C | 0.14
U26C G30C A75U | 0.43
U26C C27U C32U | 0.08
U26C A28U G30C | 0.16
U26A G42U U49C A57C U67A | 0.06
U26C C32U U41C | 0.52
